The list shows a part of the results.
Target: T1, OsWOX13 (Oryza sativa, UniProt Q5QMM3 1-267)
T1 sequence: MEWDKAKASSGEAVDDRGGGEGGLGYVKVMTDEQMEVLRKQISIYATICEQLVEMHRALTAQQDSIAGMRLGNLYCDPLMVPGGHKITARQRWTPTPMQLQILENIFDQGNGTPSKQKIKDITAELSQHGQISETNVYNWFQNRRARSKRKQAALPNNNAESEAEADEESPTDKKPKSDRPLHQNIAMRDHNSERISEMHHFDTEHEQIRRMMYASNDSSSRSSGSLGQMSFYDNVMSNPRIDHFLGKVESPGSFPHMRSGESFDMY
Experiment: protein-binding microarray (RPBM); PBS, 2% BSA, 51.3 ng/ul salmon testes DNA, 50 uM zinc acetate, 200 nM TF, 25 C, 1 h; high values mean tight binding
Settings: protein: recombinant; tags: N-terminal polyhistidine and DsRed monomer fusion (pET32a); label: CyDye5-dUTP incorporated in the synthesized complementary strand; 3' TTTTT single-stranded linker to array surface; dsDNA, one strand shown
Outline: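 The binding signal is fluorescence intensity per feature, in arbitrary units, read on an Axon 4000B scanner. Polyhistidine- and DsRed-tagged transcription factors (N-terminal fusions) from E. coli BL21-CodonPlus were purified on Ni–NTA and applied at 200 nM for 1 h at 25 °C to a double-stranded, BSA-blocked custom Agilent array in buffer with 50 µM zinc acetate.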

Sequence | binding signal
ATAACAGAATGGATGACGTAAGCTGCACACGCGGCACTAGCGGAGTCACCTAGTGCAG | 3930 fluorescence intensity (a.u.)
TTTGATAGGCATATTTCAATCCAACAACTTATCATCTTAACGGAGTCACCTAGTGCAG | 13200 fluorescence intensity (a.u.)
ACCAATTGCTGATGATCTGAGAATAATTCCATTCCAAAATCGGAGTCACCTAGTGCAG | 3430 fluorescence intensity (a.u.)
ATAAAATTACAATGTCATAATTAATATAAATCCAATGACACGGAGTCACCTAGTGCAG | 14400 fluorescence intensity (a.u.)
CATGTGCGATATGATTATCTAAACTCTATCGAACGTGCCACGGAGTCACCTAGTGCAG | 3350 fluorescence intensity (a.u.)
TCGCCATGGATGGTGATTGGTCATGGACTCGCGGTTCGGGCGGAGTCACCTAGTGCAG | 5640 fluorescence intensity (a.u.)
GGAAATTTATATCCTTTACGGCGAATGTGATTTCTCATTTCGGAGTCACCTAGTGCAG | 3410 fluorescence intensity (a.u.)
AATTGATTATCCGAGAAGCAATGAGCAGAACGTTCATGTACGGAGTCACCTAGTGCAG | 33400 fluorescence intensity (a.u.)
AAAAGTAATTAAGTTGTCCACCTGACCAATCTGAACTTGCCGGAGTCACCTAGTGCAG | 3680 fluorescence intensity (a.u.)
TTTGACTTTGACAGGGCACAAACAATTAATCTGAATGTTTCGGAGTCACCTAGTGCAG | 10500 fluorescence intensity (a.u.)
TTAGATTGGGGTGCGACACTTAAGGATTATAAAATCACAGCGGAGTCACCTAGTGCAG | 22600 fluorescence intensity (a.u.)
TGGAATAATTAAAACTCAATTAATCACAGGTTATTATAACCGGAGTCACCTAGTGCAG | 5980 fluorescence intensity (a.u.)
CCAAGTTTCCATCAATCAATCAATGAGATTTAATTTATGCCGGAGTCACCTAGTGCAG | 26500 fluorescence intensity (a.u.)
AATTTAATCGCGATAGATTGGTTTAACTCTAATCCGGGAGCGGAGTCACCTAGTGCAG | 36700 fluorescence intensity (a.u.)
AGAAGAAAATCACAACGTTGACTGAAGAGGGAAACACCAACGGAGTCACCTAGTGCAG | 3590 fluorescence intensity (a.u.)
TCCAAACTGTCAATAATGTTCTGGGTCGCCAAGAACATCACGGAGTCACCTAGTGCAG | 18500 fluorescence intensity (a.u.)
TCCAAAATGGCTACATGATTGACAAGCTACATAGTAACAACGGAGTCACCTAGTGCAG | 27900 fluorescence intensity (a.u.)
ACTAAACTCTGTTAATTTCAACATCACTACCAAACAAGAACGGAGTCACCTAGTGCAG | 11600 fluorescence intensity (a.u.)
CCTGTTGATTGGATATCTGGAACCTGAAATCCTGAATACGCGGAGTCACCTAGTGCAG | 55800 fluorescence intensity (a.u.)
CTCGATTTTAACAGATTAATTAAACAGCGCTATGCAGACACGGAGTCACCTAGTGCAG | 29100 fluorescence intensity (a.u.)
ATGTATTAGAATGATTATTTGATCTCAAGTTGTACATCAGCGGAGTCACCTAGTGCAG | 5680 fluorescence intensity (a.u.)

Sequence | binding signal
AATTTATTAAGCCTAATTAACTTGTCATTAGTAAATGTTTCGGAGTCACCTAGTGCAG | 9770 fluorescence intensity (a.u.)
AAGTAACTGCTCATTACTCAATCAGTCAAAGTTGAGCAACCGGAGTCACCTAGTGCAG | 22900 fluorescence intensity (a.u.)
ACGATGATGCAATCATCATAAATATATTCCAAGCATTAGACGGAGTCACCTAGTGCAG | 4320 fluorescence intensity (a.u.)
TTGTTGATTATGTTTAGCCATGTGGCTTTAAAGTGGGGTCCGGAGTCACCTAGTGCAG | 32100 fluorescence intensity (a.u.)
AATTGGCTATAGATGATTTGTAACTAGTAGTTGGCTATACCGGAGTCACCTAGTGCAG | 4320 fluorescence intensity (a.u.)
TGTGTGATACAATCATCTCTATAATTGCCTCTAGGGCATACGGAGTCACCTAGTGCAG | 10800 fluorescence intensity (a.u.)
GGTACGTTAATTAATTACTCGCAAATAAATATCTAAGTAGCGGAGTCACCTAGTGCAG | 45200 fluorescence intensity (a.u.)
AAAATATTAGTAAATTAACAATATTACAAAGTATTGTAGGCGGAGTCACCTAGTGCAG | 3700 fluorescence intensity (a.u.)
TTATAATTATTTGTGTTGCAATGTATGTTTTGTTTATATACGGAGTCACCTAGTGCAG | 9980 fluorescence intensity (a.u.)
GCAACTGATAGACTAACTTGTCCGGTCCTGTTTTGGAATCCGGAGTCACCTAGTGCAG | 20700 fluorescence intensity (a.u.)
CTTGACATAAAATACAACTCATCCTTCAAAATATCGTCAACGGAGTCACCTAGTGCAG | 4010 fluorescence intensity (a.u.)
GAGCATGTAATCATATTGTCAAATCATTGACCCCTTGCTTCGGAGTCACCTAGTGCAG | 6030 fluorescence intensity (a.u.)
TCTTGTGATTGTATTTTGATAAATCTGAAGAGCATTATGACGGAGTCACCTAGTGCAG | 22000 fluorescence intensity (a.u.)
TGTCTAGATTTATTAAAATCAATATGAATGTGGAAAATGTCGGAGTCACCTAGTGCAG | 6660 fluorescence intensity (a.u.)
CTTGACTTAACACGTCACCTTATCATGTCACATGTAAACACGGAGTCACCTAGTGCAG | 4510 fluorescence intensity (a.u.)
CTGAAATTGAAGGGATGGGCTGGAGGCTGGAGAGACATCACGGAGTCACCTAGTGCAG | 18400 fluorescence intensity (a.u.)
GAAATGAATAGGTTGACAGAGGCATGAAATGATGCATGACCGGAGTCACCTAGTGCAG | 5000 fluorescence intensity (a.u.)
AACTAATGAAGTGTCTAAACTCTAAACATATGTCACCACCCGGAGTCACCTAGTGCAG | 3780 fluorescence intensity (a.u.)
TTCAATCCAATTAACGTTGGGCCTCATCGGTTATCCAGAACGGAGTCACCTAGTGCAG | 6840 fluorescence intensity (a.u.)
CCAATCAATTTTCATGGAAATAAAATGGATAAGAATCATACGGAGTCACCTAGTGCAG | 14300 fluorescence intensity (a.u.)
GAATGACTGAATCTGATCTGTCAGATTGCCTGATGGTTCTCGGAGTCACCTAGTGCAG | 18600 fluorescence intensity (a.u.)

Sequence | binding signal
TTTTGATTTTATTGTCTAGTACCTCTCTTCAACGTATAGCCGGAGTCACCTAGTGCAG | 13700 fluorescence intensity (a.u.)
ATGACGATGATGGTGATGGAGTCGGGTACTGGTGATGGTACGGAGTCACCTAGTGCAG | 3730 fluorescence intensity (a.u.)
TGTATTTACTTTTATATAATTATGATATTATTGCTATAAACGGAGTCACCTAGTGCAG | 3620 fluorescence intensity (a.u.)
TTAAATTTAAAATTTTGTTTGAATGCTTAGTATGTGCATTCGGAGTCACCTAGTGCAG | 27800 fluorescence intensity (a.u.)
CCTAGAGCAAACAATTTGATTATCCATGATGAAATAGTGACGGAGTCACCTAGTGCAG | 3220 fluorescence intensity (a.u.)
ATATATATATATATATATTGTGAGGGGATCTAGTGCCTGGCGGAGTCACCTAGTGCAG | 7110 fluorescence intensity (a.u.)
TATTGATTGACATGGTTAGTGGTATGACATGATTATTTGGCGGAGTCACCTAGTGCAG | 41400 fluorescence intensity (a.u.)
CGATGACATAACTATCATGTGAGGTCATTTGTAGATTTGGCGGAGTCACCTAGTGCAG | 12200 fluorescence intensity (a.u.)
AGCAGTAATTACGCTAGACACGAACCTTCCGCCTATCTCACGGAGTCACCTAGTGCAG | 19000 fluorescence intensity (a.u.)
AATAATATTAATAGTGTTGACTAGTGTTAAGAGATATGTTCGGAGTCACCTAGTGCAG | 3720 fluorescence intensity (a.u.)
TCGACGAATATATAATTAGTCCCTGTCCCACGTGCCATTTCGGAGTCACCTAGTGCAG | 3920 fluorescence intensity (a.u.)
CAGTATAAGCACGATTGAGATTGATAAAATATCACATGTCCGGAGTCACCTAGTGCAG | 9990 fluorescence intensity (a.u.)
ATTGAAACATATGATTAATTTTAATCAGAATATAATCATGCGGAGTCACCTAGTGCAG | 28200 fluorescence intensity (a.u.)
TCTCAACATGCTTCGTCAGTAATTGATGAAGATGTGCCGGCGGAGTCACCTAGTGCAG | 8760 fluorescence intensity (a.u.)
TATAGTCTACTTAACTAGCTAATTAAGCCATTGCAACGGGCGGAGTCACCTAGTGCAG | 4720 fluorescence intensity (a.u.)
CATGAAGAGAGCAAATTGATTGGGCCGGAAGTCGCTCCGGCGGAGTCACCTAGTGCAG | 29100 fluorescence intensity (a.u.)
GAATTTTGGGTGATTGAATAATGTATGGATGAGGCATATACGGAGTCACCTAGTGCAG | 22400 fluorescence intensity (a.u.)
TTATTAGATTAATCCAAATTATGAGGTGATAATAATTATTCGGAGTCACCTAGTGCAG | 8410 fluorescence intensity (a.u.)
ATCGTCTGATTTGCACCGTGGAGTCAGATCAGATGCCATCCGGAGTCACCTAGTGCAG | 10500 fluorescence intensity (a.u.)
CGCCAATTATATAAGCTGAGCCACACCGCCATAGACCAAGCGGAGTCACCTAGTGCAG | 4700 fluorescence intensity (a.u.)
CTGGTTAATTAGCTACCATAACAGTGCTCTCAGATCTCGACGGAGTCACCTAGTGCAG | 23700 fluorescence intensity (a.u.)

Sequence | binding signal
TCTAAATTAATCTTTAGTTCTTGACCGCAAAATATGAAGCCGGAGTCACCTAGTGCAG | 14800 fluorescence intensity (a.u.)
TTTCTATCATTTGATTTATTGTTAAATATAATACTACTACCGGAGTCACCTAGTGCAG | 19500 fluorescence intensity (a.u.)
AATAAATAATTAATGGGCAAACATTTTATGTTTGTATATTCGGAGTCACCTAGTGCAG | 23900 fluorescence intensity (a.u.)
TGGAATAATTAATAGGAGTATTGCTTGTGTTGATGTGTGTCGGAGTCACCTAGTGCAG | 18200 fluorescence intensity (a.u.)
TTTGTTAATTGCATGCCTTGCACACTATTGCAAGAACCTACGGAGTCACCTAGTGCAG | 13200 fluorescence intensity (a.u.)
TATTCATAAATTACTTTTCATTTACAAATATGCCGTTTCGCGGAGTCACCTAGTGCAG | 6830 fluorescence intensity (a.u.)
CTTTCTAATAATTGTCACTATGCGTAGCTTCTTGCAATCCCGGAGTCACCTAGTGCAG | 4300 fluorescence intensity (a.u.)
TCTAATTAGCTAGGTCCATTGATTCATCATCATCTCCATTCGGAGTCACCTAGTGCAG | 30100 fluorescence intensity (a.u.)
AGGTAATCACACGGAATCAGCCATTGGAACGTTCTTGCCACGGAGTCACCTAGTGCAG | 8230 fluorescence intensity (a.u.)
CGTTATGATCAAAATTACACAAAACTACAAGGATTTTGACCGGAGTCACCTAGTGCAG | 5340 fluorescence intensity (a.u.)
CCCTGACTGATAGTGGGCCACCCACTGCCAGGTCGGCCCCCGGAGTCACCTAGTGCAG | 35900 fluorescence intensity (a.u.)
GTGATAGATCAACCTGTAAACTAAACAGAGCCTTAGCATCCGGAGTCACCTAGTGCAG | 7680 fluorescence intensity (a.u.)
CATTTATTAATTGGTCATAGCCACCAGTCCTGCTGGTGTGCGGAGTCACCTAGTGCAG | 13500 fluorescence intensity (a.u.)
TCCCAAATTTTAATTTCCGAGTCGTAACTGCGGCGGCAACCGGAGTCACCTAGTGCAG | 8570 fluorescence intensity (a.u.)
AGGTGCTAATCATGGATTAATTAGTTTTAATAGATTGTTCCGGAGTCACCTAGTGCAG | 39100 fluorescence intensity (a.u.)
AGGCTCATCAATTAAATTCCTGTTACATGTACTACATGTACGGAGTCACCTAGTGCAG | 17000 fluorescence intensity (a.u.)
TAGATTAGTAAATTAACCATGTCCTCAAATCCCCTGTCTTCGGAGTCACCTAGTGCAG | 19800 fluorescence intensity (a.u.)
TGCGTGTTATAGAAAGCTAATTGCCTATTTTATGGAAGCACGGAGTCACCTAGTGCAG | 4640 fluorescence intensity (a.u.)
TTGCACAAGTCAGATTGATGAGATTGCCAATTGTTTAACACGGAGTCACCTAGTGCAG | 15600 fluorescence intensity (a.u.)
TAAAATAAATTGACAATATAAATTGATATGAAATATACTCCGGAGTCACCTAGTGCAG | 31700 fluorescence intensity (a.u.)
GCGATAAATAGACACATATGGATGCATGCACAATGGCACACGGAGTCACCTAGTGCAG | 8870 fluorescence intensity (a.u.)

Source: article PMC7819943, “Rice protein-binding microarrays: a tool to detect cis-acting elements near promoter regions in rice”
